We go through two substances from article PMC4705661.

By UniProt entry, the sequences of proteins in these tests, tags left out. Where a name states a change or a piece, a line headed by the entry shows the natural chain unless it says otherwise.
UniProt P37542: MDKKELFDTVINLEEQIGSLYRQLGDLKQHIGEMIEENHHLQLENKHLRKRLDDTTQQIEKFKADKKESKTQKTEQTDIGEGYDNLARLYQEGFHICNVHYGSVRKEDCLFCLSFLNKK

No constants are given. Whether binding was seen depends on the method and setting. Some results given as binding are weak or reduced against the parent protein; the word gives no strength.

The target in experiment [1] is YabA H95L, BD fusion (B. subtilis) (UniProt P37542). The experiment can be described thus: two-hybrid; BD-YabA wild type or mutants (pGBDU) mated with AD-DnaA, AD-DnaN or AD-YabA (pGAD); growth on -LUH and -LUA.
For experiment [2], the target named is YabA H95I, BD fusion (B. subtilis) (UniProt P37542). The description is as above.
For experiment [3], the target named is YabA full length, GAL4 fusion (yeast two-hybrid) (B. subtilis) (UniProt P37542). The experiment is described as above.
Experiment [4] deals with YabA H95G, BD fusion (B. subtilis) (UniProt P37542). The description is as above.
The target in experiment [5] is YabA F94Y, BD fusion (B. subtilis) (UniProt P37542). Described as above.
Experiment [6] concerns the target YabA^70–119 (B. subtilis) (UniProt P37542). The experiment can be described thus: SEC-MALS; YabA1-58 and YabA70-119 loaded at 5 mg.ml^-1 (100 μl) on a Superdex 75 column; 50 mM Tris pH 8.0, 150 mM NaCl; both purified. Background: In gel filtration, larger molecules generally elute earlier.

In the case of “YabA full length, GAL4 fusion (yeast two-hybrid) (from UniProt P37542 1-119)”, the binding entry in experiment [1], in experiment [2], in experiment [3], in experiment [4] and in experiment [5] was “binds” each time.
For the substance “YabA^70–119 (from UniProt P37542 70-119) (domain or fragment)”, the binding result in experiment [6] is “no binding (tested: 5 mg.ml^−1 loaded)”.
